Assay results reported in patent publication US20140322220A1 (Bayer, published 2014).
Numbered stars: 1 amine (or outer) side, 2 acyl side, 3 side chain; on linkers, the order of the positions; unused ones are H or OH. Square brackets hold non-standard residues; d marks the D form. Ends that are not written are not given here. * marks the point of attachment. Biotin = O=C1N[C@H]2[C@H](CS[C@H]2CCCCC(=O)*)N1; Ttds = O=C(CCC(=O)[*:2])NCCCOCCOCCOCCCN[*:1]

T1: N-terminal peptide of rabbit FGFR2 (first 15 amino acids) (rabbit)
T1 peptide: RPSFNLVEDATVEPE

T2: N-terminal peptide of pig FGFR2 (first 15 amino acids) (pig)
T2 peptide: RPSFNLVEDTTVEPE

T3: N-terminal peptide of dog FGFR2 (first 15 amino acids) (dog)
T3 peptide: RPSFNLVEDTTLEPE

T4: N-terminal peptide of FGFR2 of human, mouse, rat, macaca mulatta (first 15 amino acids) (human, mouse, rat, macaca mulatta)
T4 peptide: RPSFSLVEDTTLEPE

T5: RPSFSLVEDTTLEPEG-Ttds-Lys(Biotin) (human)
T5 construct: Synthesized by JPT Peptide Technology
T5 peptide: RPSFSLVEDTTLEPEG[Ttds]K(Biotin)


Experiments:
rat FGFR2 on RUCA cells [1] = target: T6, rat FGFR2 on RUCA cells (rat, UniProt F1LNW0 41-840); experiment: FACS, 5 ug/ml, RUCA cells
T6 construct: whole, on cells
Procedure: (§1) To determine the binding characteristics of the anti-FGFR2 antibodies on mouse, rat and human cancer cell lines, binding was tested by flow cytometry to a panel of cell lines. Adherent cells were washed twice with PBS (without Ca and Mg) and detached by enzyme-free PBS based cell dissociation buffer (Invitrogen). Cells were suspended at approximately 10⁵ cells/well in FACS buffer (PBS without Ca/Mg, Biochrom containing 3% FCS, Biochrom). Cells were centrifuged (250 g, 5 min, 4° C.) and supernatant discarded. Cell were resuspended in dilutions of the antibodies of interest (5 μg/ml in 80 μl if not indicated otherwise) in FACS buffer, and incubated on ice for 1 h. […] After incubation for 1 h on ice cells were again washed with cold FACS buffer, resuspended in 100 μl FACS buffer and analyzed by flow cytometry using a FACS-Array (BD Biosciences). Results are calculated as Geo Mean of the detection by the antibody of interest subtracted by background fluorescence as measured by detection with the secondary antibody alone.

[2] = target: T7, mutated human FGFR2 on AN3-CA cells (human, UniProt P21802 22-821); experiment: FACS, 5 ug/ml, AN3CA cells
T7 construct: whole, on cells; also called AN3-CA (DSMZ-ACC 267)
Procedure: as §1

[3] = target: T8, mutated human FGFR2 on MFE-296 cells (human, UniProt P21802 22-821); experiment: FACS, 5 ug/ml, MFE296 cells
T8 construct: whole, on cells
Procedure: as §1

rat FGFR2 on RUCA cells [4] = target: T6, rat FGFR2 on RUCA cells; experiment: FACS titration 0.1-100 nM, Ruca cells
Procedure: as §1, with “alone. Values are scored according to the following system:” for “alone.”
To determine the EC₅₀ values for binding of antibodies to selected cancer cell lines, cells were stained with FGFR2 antibodies as described above, but with various concentrations of antibodies ranging from 0.1-100 nM. […]

[5] = target: T1, N-terminal peptide of rabbit FGFR2 …; experiment: SPR Biacore T100, IgG captured, peptide as analyte
Procedure: (§2) Binding affinities of anti FGFR2 antibodies were determined by surface plasmon resonance analysis on a Biacore T100 instrument (GE Healthcare Biacore, Inc.). Antibodies as human IgG1 were immobilized onto a CM5 sensor chip through an indirect capturing reagent, anti-human IgG(Fc). Reagents from the “Human Antibody Capture Kit” (BR-1008-39, GE Healthcare Biacore, Inc.) were used as described by the manufacturer. Approximately 5000 RU monoclonal mouse anti-human IgG (Fc) antibody were immobilized per cell. Anti FGFR2 antibodies were injected at a concentration of 5 μg/ml at 141/min for 10 sec. […] Sensograms were generated after in-line reference cell correction followed by buffer sample subtraction. The dissociation equilibrium constant (KD) was calculated based on the ratio of association (kₒₙ) and dissociation rated (koff) constants, obtained by fitting sensograms with a first order 1:1 binding model using Biavaluation Software (version 4.0).

[6] = target: T2, N-terminal peptide of pig FGFR2 (first …); experiment: SPR Biacore T100, IgG captured, peptide as analyte
Procedure: as §2

[7] = target: T3, N-terminal peptide of dog FGFR2 (first …); experiment: SPR Biacore T100, IgG captured, peptide as analyte
Procedure: as §2

[8] = target: T4, N-terminal peptide of FGFR2 of human, …; experiment: SPR Biacore T100, IgG captured by anti-human IgG (Fc), peptide as analyte, 1:1 model
Procedure: as §2

[9] = target: T1, N-terminal peptide of rabbit FGFR2 …; experiment: as above
Procedure: as §2

[10] = target: T2, N-terminal peptide of pig FGFR2 (first …); experiment: as above
Procedure: as §2

[11] = target: T3, N-terminal peptide of dog FGFR2 (first …); experiment: as above
Procedure: as §2

[12] = target: T5, RPSFSLVEDTTLEPEG-Ttds-Lys(Biotin); experiment: peptide binding ELISA; the reference itself
Source text: (§3) Two different types of ELISA were used to determine the binding improvement of mutated variants: a) Peptide Binding ELISA: a synthetic peptide comprising the amino acid sequence of the epitope linked C-terminally to a biotinylated lysine […]-Ttds-Lys(Biotin) (peptide sequence derived from SEQ ID NO:63, synthesized by JPT Peptide Technology GmbH, Berlin, Germany), and b) Recombinant Protein Binding ELISA: recombinant human FGFR2 (DNA sequence of human FGFR2 (NP 000132.3) Met 1-Glu 377, fused with a polyhistidine tag at the C-terminus; #10824-1-1081-1, Sin θ Biological Inc., Beijing, China).
Briefly, in both ELISA formats MTP plates (384 well Maxisorp, Nunc) were coated with 20 μl, anti-human IgG Fc specific (#12136; sigma) at 2.2 μg/ml for 2.5 h at 37° C. in coating buffer (#121125 Candor Bioscience GmbH). […] Anti-FGFR2 variants were immobilized in concentrations of 0.035 μg/ml (peptide based assay) or 0.2 μg/ml (recombinant human FGFR2 protein based assay) in 10% Smart Block in PBST depending on the format and variants to be analyzed by incubation of 20 μl for one hour at 20-22° C. After one washing step using 50 μl PBST, 20 μl quadruplets of the antigen dilution series in 10% SmartBlock in PBST with a maximum concentration of 100 nM were added and incubated for 1 h at 20-22° C. and the washing step was repeated 3 times. For the detection of the biotinylated epitope peptide 20 μl of streptavidine/POD conjugate (# S5512, Sigma) in a 1:1000 dilution in 10% SmartBlock in PBST were applied for one hour at 20-22° C. For the detection of the recombinant FGFR2 protein 20 μl of anti-His/HRP conjugate (#71840, novagen) in a 1:10000 dilution in 10% SmartBlock in PBST were applied for one hour at 20-22° C. After 3 washing steps 20 μl of 10 μM amplex red substrate (# A12222, Invitrogen) in 50 mM Sodium hydrogen phosphate, pH 7.6, were added and the fluorescence signal was detected using a common fluorescence reader, e.g. Tecan M1000. EC50 values were evaluated by fitting the data (Sigmoida) dose-response, variable slope, bottom set to background; GraphPad Prism software).

[13] = target: T9, recombinant human FGFR2 (Met 1-Glu 377) with C-terminal polyhistidine tag (human, UniProt P21802 partial chain); experiment: protein binding ELISA; the reference itself
T9 construct: The range is that of the expressed DNA and begins at Met 1; also called His-tagged FGFR2; recombinant human FGFR2-IIIc molecule
Source text: as §3
(§4) Briefly, in both ELISA formats MTP plates (384 well Maxisorp, Nunc) were coated with 20 μl, anti-human IgG Fc specific (#12136; sigma) at 2.2 μg/ml for 2.5 h at 37° C. in coating buffer (#121125 Candor Bioscience GmbH). […] Anti-FGFR2 variants were immobilized in concentrations of 0.035 μg/ml (peptide based assay) or 0.2 μg/ml (recombinant human FGFR2 protein based assay) in 10% Smart Block in PBST depending on the format and variants to be analyzed by incubation of 20 μl for one hour at 20-22° C. […] After 3 washing steps 20 μl of 10 μM amplex red substrate (# A12222, Invitrogen) in 50 mM Sodium hydrogen phosphate, pH 7.6, were added and the fluorescence signal was detected using a common fluorescence reader, e.g. Tecan M1000. […]

[14] = target: T9, recombinant human FGFR2 (Met 1-Glu 377) …; experiment: protein binding ELISA, antibody captured by anti-human IgG Fc, FGFR2-His titrated
Source text: as §3, §4

[15] = target: T5, RPSFSLVEDTTLEPEG-Ttds-Lys(Biotin); experiment: peptide binding ELISA, antibody captured by anti-human IgG Fc, biotinylated peptide titrated
Source text: as §3, §4

| Binder | Geo Mean minus Geo Mean of secondary antibody alone (FACS) (rat FGFR2 on RUCA cells [1]) | Geo Mean minus Geo Mean of secondary antibody alone (FACS) [2] | Geo Mean minus Geo Mean of secondary antibody alone (FACS) [3] | EC50 (rat FGFR2 on RUCA cells [4]) | Kd [8] | Kd [9] | Kd [10] | Kd [11] | fold EC50 reduction [12] | fold signal [12] | fold EC50 reduction [13] | EC50 [14] | EC50 [15] | binding result [5] | binding result [6] | binding result [7] |
| --- | --- | --- | --- | --- | --- | --- | --- | --- | --- | --- | --- | --- | --- | --- | --- | --- |
| M048-D01-hIgG1 (antibody, Human IgG1; also called M048-D1; M048-D01-hNG1 [sic]) heavy: EVQLLESGGGLVQPGGSLRLSCAASGFTFSSYAMSWVRQAPGKGLEWVSAISGSGTSTYYADSVKGRFTISRDNSKNTLYLQMNSLRAEDTAVYYCARVRYNWNHGDWFDPWGQGTLVTVSS[human IgG1 constant region not listed] light: QSVLTQPPSASGTPGQRVTISCSGSSSNIGNNYVSWYQQLPGTAPKLLIYENYNRPAGVPDRFSGSKSGTSASLAISGLRSEDEADYYCSSWDDSLNYWVFGGGTKLTVLGQPKAAPSVTLFPPSSEELQANKATLVCLISDFYPGAVTVAWKADSSPVKAGVETTTPSKQSNNKYAASSYLSLTPEQWKSHRSYSCQVTHEGSTVEKTVAPTECS | 10 to 100 geomean | 100 to 1000 geomean | 1000 to 10000 geomean | 0.9 nM | 105 nM | 88 nM | 70 nM | 72 nM | – | – | – | – | – | – | – | – |
| TPP-1415 (antibody, human IgG1, lambda) heavy: EVQLLESGGGLVQPGGSLRLSCAASGFTFRTSGMHWVRQAPGKGLEWVAVISYDGSNKYYADSVKGRFTISRDNSKNTLYLQMNSLRAEDTAVYYCARESPGYDFEYWGQGTLVTVSS[human IgG1 constant region not listed] light: AQSVLTQPPSASGTPGQRVTISCSGSSSNIGSNTVNWYQQLPGTAPKLLIYGNSNRPSGVPDRFSGSKSGTSASLAISGLRSEDEADYYCAAWDDSLNGWVFGGGTKLTVLGQPKAAPSVTLFPPSSEELQANKATLVCLISDFYPGAVTVAWKADSSPVKAGVETTTPSKQSNNKYAASSYLSLTPEQWKSHRSYSCQVTHEGSTVEKTVAPTECS | – | – | – | – | – | – | – | – | 1 fold | 1 fold | 1 fold | 8 nM | > 10 nM | – | – | – |

Further lines, with some results ahead:

| Geo Mean minus Geo Mean of secondary antibody alone (FACS) (rat FGFR2 on RUCA cells [1]) | Geo Mean minus Geo Mean of secondary antibody alone (FACS) [2] | Geo Mean minus Geo Mean of secondary antibody alone (FACS) [3] | EC50 (rat FGFR2 on RUCA cells [4]) | Kd [8] | Kd [9] | Kd [10] | Kd [11] | fold EC50 reduction [12] | fold signal [12] | fold EC50 reduction [13] | EC50 [14] | EC50 [15] | Binder | binding result [5] | binding result [6] | binding result [7] |
| --- | --- | --- | --- | --- | --- | --- | --- | --- | --- | --- | --- | --- | --- | --- | --- | --- |
| 100 to 1000 geomean | 100 to 1000 geomean | 1000 to 10000 geomean | 1 nM | 101 nM | – | – | – | – | – | – | – | – | M047-D08-hIgG1 (antibody, Human IgG1) heavy: EVQLLESGGGLVQPGGSLRLSCAASGFTFRTSGMHWVRQAPGKGLEWVAVISYDGSNKYYADSVKGRFTISRDNSKNTLYLQMNSLRAEDTAVYYCARESPGYDFEYWGQGTLVTVSS[human IgG1 constant region not listed] light: QSVLTQPPSASGTPGQRVTISCSGSSSNIGSNTVNWYQQLPGTAPKLLIYGNSNRPSGVPDRFSGSKSGTSASLAISGLRSEDEADYYCAAWDDSLNGWVFGGGTKLTVLGQPKAAPSVTLFPPSSEELQANKATLVCLISDFYPGAVTVAWKADSSPVKAGVETTTPSKQSNNKYAASSYLSLTPEQWKSHRSYSCQVTHEGSTVEKTVAPTECS | no binding (tested: peptide up to 400 nM) | no binding (tested: peptide up to 400 nM) | no binding (tested: peptide up to 400 nM) |
| – | – | – | – | – | – | – | – | 1 fold | – | 1 fold | 8 nM | > 10 nM | TPP-1403 (antibody, human IgG1, lambda) heavy: EVQLLESGGGLVQPGGSLRLSCAASGFTFSSYAMSWVRQAPGKGLEWVSAISGSGTSTYYADSVKGRFTISRDNSKNTLYLQMNSLRAEDTAVYYCARVRYNWNHGDWFDPWGQGTLVTVSS[human IgG1 constant region not listed] light: AQSVLTQPPSASGTPGQRVTISCSGSSSNIGNNYVSWYQQLPGTAPKLLIYENYNRPAGVPDRFSGSKSGTSASLAISGLRSEDEADYYCSSWDDSLNYWVFGGGTKLTVLGQPKAAPSVTLFPPSSEELQANKATLVCLISDFYPGAVTVAWKADSSPVKAGVETTTPSKQSNNKYAASSYLSLTPEQWKSHRSYSCQVTHEGSTVEKTVAPTECS | – | – | – |
